This is an account of results in PubChem BioAssay AID463173 (ICCB-Longwood Screening Facility, Harvard Medical School, 2010).

Among all 52,000 compounds or so, about 1,700 (3.3%) were called active. Rule as the data show it: active = survival mostly below about 52% (no sharp cut-off); inactive = mostly above about 56%. The list shows a part of the results.

For this assay, the system named is Wild type. Nature of the assay: S. aureus survival, RN4220 and DeltatarO strains – OD600, teichoic acid synthesis inhibitors, primary screen (AID 463173). The following applies: S. aureus RN4220 wild type/DeltatarO growth, OD600, 18 h, hits give low values, screened at 18.75 µg/mL (by protocol).
In the case of `Cc1ccc(N2CCN(S(=O)(=O)c3nnc(NC(=O)c4cccc(F)c4)s3)CC2)cc1`, the survival is inactive: 65%.

Take `CCCCCOc1ccc(C(=O)CCN2CCOCC2)cc1`: the survival was inactive: 35%.

For the compound `O=C(Cn1cccc1C(=O)c1ccccc1)NCc1ccc(Cl)cc1`, the survival is inactive: 89%.

Consider `COc1ccc(NC(=O)CNC(=O)Cn2ccc3ccccc3c2=O)c(OC)c1`, for which the survival is inactive: 85%.

On to `Nc1c(C(=O)N2CCOCC2)sc2nc3c(cc12)CCCC3`, for which the survival is inactive: 99%.

In the case of `CCCN1CCN(CCCNC(=O)c2cc3c(=O)[nH]c4ccccc4c3s2)CC1`, the survival was inactive: 86%.

`CC1CCC2C(C1)Nc1c(C(=O)O)cccc1C2(C)C` (stereo not drawn): the survival is inactive: 92%.

With `Cc1ccc(CNC(=O)c2cnc(N3CCCC3)nc2C)cc1`, the survival is inactive: 65%.

As to `CN(C(=O)CSc1nc2ccc(NC(=O)c3ccco3)cc2s1)c1ccccc1`, the survival was inactive: 69%.

Consider `COc1cccc(OC(=O)N2CCOCC2)c1`, for which the survival was inactive: 124%.

In the case of `CCc1ccccc1NC(=O)c1nnn(CC(=O)Nc2c(C)cc(C)cc2C)c1N`, the survival is inactive: 98%.

`N#Cc1ccccc1NC(=O)CSC1=NCCS1`: the survival was inactive: 105%.

For `Cc1cc(C)c2c(NC(=O)c3ccccc3Cl)c(C(=O)Nc3ccc(C)c(C)c3)sc2n1`, the survival is inactive: 64%.

For `COc1cc(CNCCSc2nnnn2C)ccc1OCc1ccccc1`, the survival is inactive: 84%.

Turning to `CCC1=Nc2cc(C(=O)NC3CCCC3)ccc2Sc2ccc(Cl)cc21`, the survival was inactive: 77%.

Turning to `Cc1ccc2nc3sc(C(=O)Nc4ccc(F)cc4)cc3cc2c1`, the survival was inactive: 32%.

For `CCOC(=O)c1cc(S(=O)(=O)N2CCN(c3cccc(C)c3)C(C)C2)[nH]n1` (stereo not drawn), the survival was inactive: 76%.

Take `O=C(CSC1=NCCS1)OCN1C(=O)c2ccccc2C1=O`: the survival is inactive: 105%.

As to `COc1ccc(N2CCN(C(=O)c3c(C)oc4ncn(CC(C)C)c(=O)c34)CC2)cc1`, the survival is inactive: 56%.

On to `COC(=O)c1ccc(NC(=O)C(C)N2Cc3ccccc3C2=O)cc1` (stereo not drawn), for which the survival was inactive: 53%.

As to `COc1ccc2c(=O)c(NC(=O)Nc3ccc(F)cc3F)c[nH]c2c1`, the survival is inactive: 118%.

As to `CCn1cc(C(=O)N2CCN(c3ccccc3OC)CC2)c2cc(OC)c(OC)cc2c1=O`, the survival was inactive: 70%.

Regarding `CCN1C(=O)C(C2SC(=S)N(CC)C2=O)SC1=S` (stereo not drawn), the survival was inactive: 98%.

Regarding `Cc1cc(C)c2c(n1)sc1c(N3CCN(CCO)CC3)ncnc12`, the survival is inactive: 111%.

Take `CCc1ccc(NC(=O)c2ccc(CNS(=O)(=O)c3ccc4c(c3)C(C)(C)C(=O)N4C)cc2)cc1`: the survival is inactive: 83%.

Take `CCOc1cccc2sc(=NC(=O)c3ccc(S(=O)(=O)N4CCOCC4)cc3)n(C)c12`: the survival was inactive: 83%.

As for `Nc1ccc(S(=O)(=O)N2CCCC(C(=O)O)C2)cc1` (stereo not drawn), the survival was inactive: 103%.

With `CCC(Oc1ccccc1)C(=O)Nc1nnc(S(=O)(=O)N2CCCC2)s1` (stereo not drawn), the survival is inactive: 108%.

In the case of `CCc1ccc(OCC(=O)Nc2c(C(=O)c3ccc(Br)cc3)oc3ccccc23)cc1`, the survival is inactive: 70%.

For `CC(=O)N1CCN(CCN=CC2=C(O)CC(c3ccco3)CC2=O)CC1` (stereo not drawn), the survival is inactive: 101%.

As for `COc1ccc(CCNC(=O)CCCCn2c(=O)c3ccccc3n(Cc3cccc(C)c3)c2=O)cc1OC`, the survival is inactive: 96%.

Consider `CCOC(=O)c1c(NC(=O)C(C)Oc2ccccc2F)sc(C(C)=O)c1C` (stereo not drawn), for which the survival is inactive: 65%.

Turning to `CCOc1ccc(CCNc2ncnc3onc(C)c23)cc1OCC`, the survival is inactive: 83%.

As for `CCOC(=O)c1cnc2c(OC)cccc2c1N1CCN(c2ccccc2F)CC1`, the survival is active: -14%.

On to `CCOc1ccccc1NC(=O)C1CCCN(C(=O)Nc2ccccc2)C1` (stereo not drawn), for which the survival was inactive: 107%.

Take `c1ccc(N=C(c2cccs2)N2CCOCC2)cc1`: the survival is inactive: 107%.

Turning to `CCCCN(CCCC)CCn1cnc2c([nH]c3ccc(OC)cc32)c1=O`, the survival is inactive: 120%.

`c1ccc2sc(N3CCN(Cc4nnnn4C4CCCC4)CC3)nc2c1`: the survival was inactive: 104%.

Consider `COc1ccc(NC(=O)c2oc3ccccc3c2NC(=O)c2cc(=O)c3ccccc3o2)cc1`, for which the survival is inactive: 88%.

In the case of `COc1ccc(C(=O)Nc2ccc3c(c2)CCCN3S(=O)(=O)c2ccc(C)cc2)cc1`, the survival is inactive: 88%.

Take `COc1ccc(CNC(=O)c2ccc(-c3nc(CSc4ccccc4)c(C)o3)cc2)cc1`: the survival was inactive: 59%.

On to `O=C(Nc1ccccc1)NC1(C(=O)N2CCN(C(=O)c3ccco3)CC2)CCCCC1`, for which the survival was inactive: 107%.

Consider `CCc1ccc(-c2nc(CN3CCCC(C(=O)NCc4ccccc4Cl)C3)c(C)o2)cc1` (stereo not drawn), for which the survival was inactive: 55%.

Take `Cc1ccc2c(c1)-c1nc(-c3ccccc3)cc(-c3ccccc3)c1CO2`: the survival was inactive: 79%.

Take `CCCN(CCC)S(=O)(=O)c1ccc(C(=O)N2CCC(=O)c3ccccc32)cc1`: the survival was inactive: 109%.

Consider `O=C(NCCc1csc(-c2cccc(F)c2)n1)c1ccco1`, for which the survival was inactive: 69%.

Regarding `CCOc1ccc(N(CC)S(=O)(=O)N2CCCC(C(=O)NCc3ccccc3OCC)C2)cc1` (stereo not drawn), the survival is inactive: 96%.

For `COc1cc(-c2cc3n(C)c(C)c(CCC(=O)NC4CCC(C)CC4)c(=O)n3n2)cc(OC)c1OC` (stereo not drawn), the survival is inactive: 78%.

With `Cc1nn2c(=O)cc(COC(=O)c3ccccc3NC(=O)C3CCCCC3)nc2s1`, the survival is inactive: 102%.

For `COc1ccc(CC(CC(=O)O)C(=O)NCc2ccccc2)cc1` (stereo not drawn), the survival is inactive: 114%.

Regarding `O=C(NC1CCCC1)c1ccc2c(c1)N(Cc1c(F)cccc1Cl)C(=O)c1ccccc1S2`, the survival is inactive: 137%.

For `COc1cc(C(=O)N(CCCN(C)C)c2nc3c(OC)cccc3s2)cc(OC)c1OC`, the survival was inactive: 124%.

In the case of `O=C(CSc1nc2c([nH]c3ccccc32)c(=O)n1-c1ccccc1)Nc1ccccc1C(F)(F)F`, the survival was inactive: 72%.

As for `NC(=O)COc1ccc(-c2noc(COc3ccc(Cl)cc3)n2)cc1`, the survival was inactive: 144%.

Take `CCOC(=O)C1=C(CN2CCN(c3ccc(Cl)cc3)CC2)NC(=O)NC1c1ccc(F)cc1` (stereo not drawn): the survival is inactive: 65%.

As to `Cc1cc2ncn(S(=O)(=O)c3ccc(S(=O)(=O)NCC4CCCO4)cc3)c2cc1C` (stereo not drawn), the survival was inactive: 103%.

`COc1cccc2c1Oc1ncccc1N(C(=O)CCC(=O)NCc1ccc(OC(C)C)cc1)C2`: the survival is inactive: 84%.

Turning to `Cc1nn(CC(=O)NC(C)c2ccccc2)c(=O)c2cc3occc3n12` (stereo not drawn), the survival was inactive: 84%.
